B1: GPR68, Q15743 (parent)
chain: MGNITADNSSMSCTIDHTIHQTLAPVVYVTVLVVGFPANCLSLYFGYLQIKARNELGVYLCNLTVADLFYICSLPFWLQYVLQHDNWSHGDLSCQVCGILLYENIYISVGFLCCISVDRYLAVAHPFRFHQFRTLKAAVGVSVVIWAKELLTSIYFLMHEEVIEDENQHRVCFEHYPIQAWQRAINYYRFLVGFLFPICLLLASYQGILRAVRRSHGTQKSRKDQIQRLVLSTVVIFLACFLPYHVLLLVRSVWEASCDFAKGVFNAYHFSLLLTSFNCVADPVLYCFVSETTHRDLARLRGACLAFLTCSRTGRAREAYPLGAPEASGKSGAQGEEPELLTKLHPAFQTPNSPGSGGFPTGRLA

In data set [1] the parent is B1. Put plainly: cAMP reporter score (Enrich2 score, wild type = 0); higher = more signal; HEK293T, FACS bins.
Data set [2] covers variants of B1. Put plainly: surface expression score (Enrich2 score, wild type = 0); higher = more signal; HEK293T, FACS bins.

The least precise scores are not listed. Not listed are two conditions whose scores span a narrow range. Read del as a deletion of the residues named and ins as an insertion between two positions. For part of these data: The data file names ogerin without a concentration.

With N266_A267del, the cAMP reporter score is -1.17 in data set [1] (pH 5.5); -1.18 in data set [1] (pH 6); -1.93 in data set [1] (pH 6, modulator: ogerin); -1.02 in data set [1] (pH 6.5, modulator: ogerin). Also, the surface expression score in data set [2] is -2.72.

In the case of K262del, the cAMP reporter score in data set [1] (pH 5.5) was -1.62; in data set [1] (pH 6) it was -1.03; in data set [1] (pH 6, modulator: ogerin), -1.21; in data set [1] (pH 6.5, modulator: ogerin), -1.33. Also, the surface expression score in data set [2] was 0.383.

With V264_F265del, the cAMP reporter score in data set [1] (pH 5.5) is -1.36; in data set [1] (pH 6), -0.492; in data set [1] (pH 6, modulator: ogerin), -1.34; in data set [1] (pH 6.5, modulator: ogerin), -1.03. Besides, the surface expression score in data set [2] was -1.9.

In the case of F265_A267del, the cAMP reporter score in data set [1] (pH 5.5) is -1.39; in data set [1] (pH 6), -1.37; in data set [1] (pH 6, modulator: ogerin) it was -1.55; in data set [1] (pH 6.5, modulator: ogerin), -0.803. For the same variant, the surface expression score in data set [2] is -1.69.

Take A267_Y268insGSG: the cAMP reporter score was -1.45 in data set [1] (pH 5.5) and -1.95 in data set [1] (pH 6, modulator: ogerin). Besides, the surface expression score in data set [2] was -2.66.

Consider N266_A267insG, for which the cAMP reporter score in data set [1] (pH 5.5) was -0.784; in data set [1] (pH 6), -0.637; in data set [1] (pH 6, modulator: ogerin), -0.88; in data set [1] (pH 6.5, modulator: ogerin) it was -0.87. In addition, the surface expression score in data set [2] was -0.717.

With L272_L273insGS, the cAMP reporter score in data set [1] (pH 5.5) is -1.88; in data set [1] (pH 6), -0.818; in data set [1] (pH 6, modulator: ogerin), -1.63; in data set [1] (pH 6.5, modulator: ogerin) it was -1. In data set [2], the surface expression score is -2.23.

Turning to Y268D, the cAMP reporter score in data set [1] (pH 5.5) was -1.61; in data set [1] (pH 6), -1.07; in data set [1] (pH 6, modulator: ogerin), -1.31; in data set [1] (pH 6.5, modulator: ogerin) it was -0.439. The surface expression score in data set [2] is -2.79.

Regarding Y268I, the cAMP reporter score is -1.39 in data set [1] (pH 5.5); -0.463 in data set [1] (pH 6); -1.45 in data set [1] (pH 6, modulator: ogerin); -1.05 in data set [1] (pH 6.5, modulator: ogerin). Besides, in data set [2], the surface expression score is -2.27.

As for Y268R, the cAMP reporter score was -0.83 in data set [1] (pH 5.5); -1.23 in data set [1] (pH 6); -1.07 in data set [1] (pH 6.5, modulator: ogerin). In data set [2], the surface expression score was -2.38.

On to Y268G, for which the cAMP reporter score in data set [1] (pH 5.5) is -1.53; in data set [1] (pH 6) it was -1.56; in data set [1] (pH 6.5, modulator: ogerin), -0.896. In addition, the surface expression score in data set [2] was -1.07.

As for Y268V, the cAMP reporter score was -1.49 in data set [1] (pH 5.5); -1.19 in data set [1] (pH 6); -1.45 in data set [1] (pH 6, modulator: ogerin); -0.873 in data set [1] (pH 6.5, modulator: ogerin). For the same variant, the surface expression score in data set [2] is -1.39.

With Y268L, the cAMP reporter score in data set [1] (pH 5.5) is -1.02; in data set [1] (pH 6) it was -0.764; in data set [1] (pH 6, modulator: ogerin), -1.59; in data set [1] (pH 6.5, modulator: ogerin) it was -1.25. Further, in data set [2], the surface expression score is -1.65.

Y268A: the cAMP reporter score in data set [1] (pH 5.5) is -1.99; in data set [1] (pH 6) it was -1.54; in data set [1] (pH 6, modulator: ogerin), -1.98; in data set [1] (pH 6.5, modulator: ogerin) it was -1.33. Moreover, in data set [2], the surface expression score was -0.931.

Take Y268N: the cAMP reporter score is -0.658 in data set [1] (pH 5.5); -2 in data set [1] (pH 6); -1.43 in data set [1] (pH 6, modulator: ogerin); -1.08 in data set [1] (pH 6.5, modulator: ogerin). Moreover, in data set [2], the surface expression score is -2.19.

With Y268E, the cAMP reporter score in data set [1] (pH 5.5) was -0.975; in data set [1] (pH 6), -0.424; in data set [1] (pH 6, modulator: ogerin), -1.4; in data set [1] (pH 6.5, modulator: ogerin) it was -1.37.

Consider Y268P, for which the cAMP reporter score in data set [1] (pH 5.5) is -0.857; in data set [1] (pH 6), -1.29; in data set [1] (pH 6.5, modulator: ogerin), -1.58. For the same variant, the surface expression score in data set [2] is -1.41.

In the case of Y268H, the cAMP reporter score in data set [1] (pH 5.5) was -0.961; in data set [1] (pH 6) it was -0.244; in data set [1] (pH 6, modulator: ogerin) it was -1.12; in data set [1] (pH 6.5, modulator: ogerin) it was -0.645. Further, the surface expression score in data set [2] was -0.803.

Regarding Y268S, the cAMP reporter score was -1.33 in data set [1] (pH 5.5); -0.5 in data set [1] (pH 6); -1.13 in data set [1] (pH 6, modulator: ogerin); -1.17 in data set [1] (pH 6.5, modulator: ogerin).

For Y268W, the cAMP reporter score in data set [1] (pH 5.5) was -0.527; in data set [1] (pH 6) it was -0.773; in data set [1] (pH 6, modulator: ogerin), -0.571; in data set [1] (pH 6.5, modulator: ogerin), -0.878. Moreover, the surface expression score in data set [2] was found to be 0.964.

For the variant Y268M, the cAMP reporter score in data set [1] (pH 5.5) was -1.23; in data set [1] (pH 6) it was -0.734; in data set [1] (pH 6, modulator: ogerin) it was -0.949. In data set [2], the surface expression score was -0.64.

With Y268F, the cAMP reporter score in data set [1] (pH 5.5) was -0.939; in data set [1] (pH 6) it was -0.953; in data set [1] (pH 6, modulator: ogerin), -1.05; in data set [1] (pH 6.5, modulator: ogerin) it was -1.05. Besides, in data set [2], the surface expression score was -0.105.

In the case of Y268C, the cAMP reporter score in data set [1] (pH 5.5) is -0.554; in data set [1] (pH 6), -0.227; in data set [1] (pH 6, modulator: ogerin), -1.14; in data set [1] (pH 6.5, modulator: ogerin) it was -1.33. In addition, in data set [2], the surface expression score is -1.88.

In the case of H269_F270del, the cAMP reporter score in data set [1] (pH 5.5) was -1.39; in data set [1] (pH 6) it was -1.46; in data set [1] (pH 6, modulator: ogerin), -1.67; in data set [1] (pH 6.5, modulator: ogerin), -1.06. Besides, the surface expression score in data set [2] was -2.41.

Take L273_L274insGSG: the cAMP reporter score in data set [1] (pH 5.5) was -1.58; in data set [1] (pH 6), -0.934; in data set [1] (pH 6, modulator: ogerin), -2.31; in data set [1] (pH 6.5, modulator: ogerin) it was -1.74. Further, in data set [2], the surface expression score is -2.3.

Turning to F260del, the cAMP reporter score in data set [1] (pH 5.5) was -0.731; in data set [1] (pH 6), -0.429; in data set [1] (pH 6, modulator: ogerin) it was -1.08; in data set [1] (pH 6.5, modulator: ogerin), -1.1. In addition, the surface expression score in data set [2] is 0.928.

With G263del, the cAMP reporter score in data set [1] (pH 5.5) is -1.41; in data set [1] (pH 6, modulator: ogerin) it was -0.934; in data set [1] (pH 6.5, modulator: ogerin), -0.703. The surface expression score in data set [2] is -2.2.

Turning to S271_L272del, the cAMP reporter score was -2.09 in data set [1] (pH 5.5); -1.66 in data set [1] (pH 6); -1.52 in data set [1] (pH 6, modulator: ogerin); -1.37 in data set [1] (pH 6.5, modulator: ogerin). Moreover, the surface expression score in data set [2] was -2.2.

Turning to F270_S271del, the cAMP reporter score in data set [1] (pH 5.5) was -0.31; in data set [1] (pH 6), -0.744; in data set [1] (pH 6, modulator: ogerin) it was -1.68; in data set [1] (pH 6.5, modulator: ogerin) it was -0.921. In data set [2], the surface expression score was -1.99.

With F270_L272del, the cAMP reporter score was -1.04 in data set [1] (pH 5.5); -0.481 in data set [1] (pH 6); -1.77 in data set [1] (pH 6, modulator: ogerin); -0.396 in data set [1] (pH 6.5, modulator: ogerin). The surface expression score in data set [2] is -2.73.

D259_F260insGS: the cAMP reporter score in data set [1] (pH 5.5) is -1.28; in data set [1] (pH 6) it was -1.43; in data set [1] (pH 6, modulator: ogerin), -1.81; in data set [1] (pH 6.5, modulator: ogerin), -1.36. Further, in data set [2], the surface expression score amounted to 0.916.

Consider N266_A267insGSG, for which the cAMP reporter score in data set [1] (pH 5.5) is -1.66; in data set [1] (pH 6, modulator: ogerin), -1.22; in data set [1] (pH 6.5, modulator: ogerin), -1.29. The surface expression score in data set [2] is -2.28.

These data come from the GPR68 mutational scans of Howard et al. (2025).
